Measurements published in the supplement of paper PMC7826260.
Some of the results follow. The data describe in vitro nicking of single-stranded DNA by Rep domains at 3 µM enzyme and 37 °C for 1 h; the strands have 90 letters, of which the middle is given. Uncut reads are compared with the no-enzyme pool on a log2 scale; the lower, the more was cut; hits are not called. The scaling is to total reads; where an enzyme cuts many sequences, the uncut ones exceed 0.

Key:
Test in all cases: uncleaved DNA left, log2 of reads against the no-enzyme library (log2 ratio); higher = less cleavage (more negative = more Rep cleavage of the k-mer); sequences stand for … in CTCGTCCG…ACCGGAGA
[1] = system: T1, Rep nickase domain of Muscovy duck circovirus
T1 sequence (residues 1-111, tag not shown): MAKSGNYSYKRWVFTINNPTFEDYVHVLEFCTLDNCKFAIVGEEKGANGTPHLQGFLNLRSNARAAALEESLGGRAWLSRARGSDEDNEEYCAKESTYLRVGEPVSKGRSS
Method: (§1)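 A pool of 90-nt single-stranded DNAs with seven random bases just before the constant AC of the nick site (name = the seven bases) was cut by 3 µM recombinant His6-SUMO-tagged Rep nickase domain (300 nM DNA, 50 mM HEPES pH 8.0, 50 mM NaCl, 1 mM MnCl2, 1 h, 37 °C, three replicates). Uncut DNA was amplified and sequenced.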

[2] = system: T2, Rep nickase domain of banana bunchy top virus
T2 sequence (residues 1-94, tag not shown): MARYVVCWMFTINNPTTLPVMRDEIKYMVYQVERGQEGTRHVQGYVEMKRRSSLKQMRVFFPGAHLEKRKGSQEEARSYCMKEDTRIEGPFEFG
Method: as §1

[3] = system: T3, Rep nickase domain of cabbage leaf curl virus
T3 sequence (residues 1-116, tag not shown): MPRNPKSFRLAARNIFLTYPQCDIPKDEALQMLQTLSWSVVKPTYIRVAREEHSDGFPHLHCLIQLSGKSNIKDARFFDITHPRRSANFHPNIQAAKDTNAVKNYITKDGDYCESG
Method: as §1

[4] = system: T4, Rep nickase domain of chickpea chlorotic dwarf virus
T4 sequence (residues 1-124, tag not shown): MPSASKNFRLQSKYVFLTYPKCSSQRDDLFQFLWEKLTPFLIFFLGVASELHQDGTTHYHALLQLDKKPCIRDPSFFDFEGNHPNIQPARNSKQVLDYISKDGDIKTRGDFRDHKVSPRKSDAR
Method: as §1

[5] = system: T5, Rep nickase domain of faba bean necrotic yellows virus
T5 sequence (residues 1-98, tag not shown): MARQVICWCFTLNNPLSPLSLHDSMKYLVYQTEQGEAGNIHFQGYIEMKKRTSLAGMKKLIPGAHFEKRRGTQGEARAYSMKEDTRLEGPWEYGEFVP
Method: as §1

[6] = system: T6, Rep nickase domain of maize striate mosaic virus
T6 sequence (residues 1-117, tag not shown): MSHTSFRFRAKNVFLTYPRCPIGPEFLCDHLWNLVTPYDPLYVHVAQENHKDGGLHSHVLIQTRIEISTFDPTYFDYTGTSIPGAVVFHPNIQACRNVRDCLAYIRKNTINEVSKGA
Method: as §1

[7] = system: T7, Rep nickase domain of porcine circovirus 2
T7 sequence (residues 2-116, tag not shown): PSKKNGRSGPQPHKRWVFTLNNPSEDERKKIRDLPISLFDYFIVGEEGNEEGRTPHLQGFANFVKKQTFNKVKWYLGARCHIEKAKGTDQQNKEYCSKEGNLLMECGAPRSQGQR
Method: as §1

[8] = system: T8, Rep nickase domain of tomato golden mosaic virus
T8 sequence (residues 1-124, tag not shown): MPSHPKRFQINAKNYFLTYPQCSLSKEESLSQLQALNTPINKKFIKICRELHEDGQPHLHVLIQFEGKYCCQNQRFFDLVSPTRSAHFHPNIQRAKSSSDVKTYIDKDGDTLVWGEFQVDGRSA
Method: as §1

[9] = system: T9, Rep nickase domain of tomato yellow leaf curl virus
T9 sequence (residues 1-136, tag not shown): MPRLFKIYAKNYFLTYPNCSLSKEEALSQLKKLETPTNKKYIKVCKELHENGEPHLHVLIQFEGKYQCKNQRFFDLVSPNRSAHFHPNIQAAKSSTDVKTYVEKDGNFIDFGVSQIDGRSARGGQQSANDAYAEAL
Method: as §1

[10] = system: T10, Rep nickase domain of wheat dwarf virus
T10 sequence (residues 1-137, tag not shown): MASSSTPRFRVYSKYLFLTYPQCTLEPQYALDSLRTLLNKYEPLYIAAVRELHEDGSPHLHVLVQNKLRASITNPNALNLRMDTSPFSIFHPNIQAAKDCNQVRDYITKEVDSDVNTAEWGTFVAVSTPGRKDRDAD
Method: as §1

Sequence	uncleaved DNA left (log2) [1]	uncleaved DNA left (log2) [2]	uncleaved DNA left (log2) [3]	uncleaved DNA left (log2) [4]	uncleaved DNA left (log2) [5]	uncleaved DNA left (log2) [6]	uncleaved DNA left (log2) [7]	uncleaved DNA left (log2) [8]	uncleaved DNA left (log2) [9]	uncleaved DNA left (log2) [10]
GACTTCC	0.158	-0.0643	0.702	1.24	0.0946	1.94	0.0758	0.0254	0.0408	0.136
CTTGGGA	0.0561	0.0155	-0.268	-0.083	0.205	-0.828	0.147	0.0218	0.0711	0.0546
GAAAACT	0.107	0.0622	-1.42	-2.28	0.0111	0.554	-0.728	-0.0804	0.0816	-0.234
GGTGTTA	0.15	0.0577	0.418	0.795	0.072	1.86	-0.0581	0.167	0.128	0.19
AGTTGGT	-0.306	-0.229	-0.216	-0.0582	-0.04	0.0531	-3.04	-0.0423	-0.141	-0.214
CTTGCCA	-0.0208	0.0542	-0.307	-0.904	0.0305	-1.01	0.0897	-0.0618	0.122	0.00209
CTCCTAC	-0.204	-0.162	-0.355	-2.15	-0.146	-0.843	-0.348	-0.194	-0.219	-0.13
ATCCCAC	-0.0579	0.0324	-0.0803	-0.292	0.0647	-0.574	0.0348	-0.108	-0.0768	0.143
CTGGATA	-0.00161	-0.0092	0.137	0.861	0.0642	1.12	0.0657	-0.00224	-0.0668	0.00995
TTGTTGT	-0.304	-0.182	-0.376	-0.875	-0.0455	-1.18	-1.49	-0.273	0.0138	-0.228
CTGGTGA	0.0447	0.0241	-0.25	-0.403	0.0534	-0.826	-0.0691	-0.0898	-0.066	-0.106
CATGAAC	0.0475	0.0709	0.0186	-0.232	0.0688	-0.759	0.133	0.00951	0.0266	-0.00721
GCTGCGA	-0.0187	-0.0301	-0.76	0.14	-0.0606	-0.789	0.162	-0.00964	-0.135	-0.131
AGGTCAC	0.116	0.119	0.298	0.381	-0.00741	0.445	0.114	0.0564	0.163	0.211
AGATTAC	0.0542	-0.0825	-0.0905	-1.55	0.102	-0.491	0.0375	-0.0195	-0.0485	0.0101
TAGGCAA	0.0428	0.145	0.41	0.493	-0.015	0.436	0.0308	0.184	0.137	0.173
AGTCCTG	0.144	0.0262	0.118	0.669	-0.0657	1.57	0.0728	-0.045	0.1	0.142
CCCCCCT	-0.26	-0.283	-0.314	-1.71	-0.241	-0.717	-0.518	-0.168	-0.189	-0.298
TGTTACG	-0.147	-0.106	-1.01	-1.04	-0.033	-1.14	-0.865	-0.232	-0.0494	-0.208
TGCACCG	0.0457	0.081	-0.688	-0.495	0.113	-0.954	0.14	0.105	0.00889	-0.0589
GACTAGT	-1.78	-1.17	0.175	0.14	0.0186	0.546	-2.73	0.204	0.0194	0.1
TTGACGC	0.07	0.0546	-0.277	-0.537	0.0279	-0.869	0.0407	-0.0597	0.0799	0.0584
TGTTCCT	-0.52	-0.0303	0.211	-0.75	-0.0361	0.878	-0.634	-0.09	0.108	-0.0102
TAGCAAG	0.0933	-0.152	-0.655	-0.619	0.175	-1.1	0.116	-0.0198	-0.00916	-0.0657
TGAATTT	-0.00227	0.000419	0.0767	-2.48	0.0158	-0.278	-0.43	-0.0631	0.0442	-0.0656
TACGTAG	0.219	-0.0397	-0.57	-0.936	0.091	-0.968	0.254	0.0819	0.112	-0.0145
CACGATT	-0.105	-0.0895	-0.497	-2.67	-0.00291	-0.442	-1.59	-0.0489	-0.139	-0.0492
TCCCATC	-0.00683	-0.00221	0.0843	-0.108	-0.0231	-0.558	0.0289	0.0714	0.151	0.107
TCGCACG	-0.0633	-0.0297	-0.722	-0.79	-0.11	-1.21	0.0596	-0.211	-0.155	-0.291
